Data from the supplement of paper PMC12217912.
The other results are listed elsewhere or left out. Sequences were assembled here from the parent chain. Inactive controls read about 0.05.

B1: TEV protease; numbered along this chain (parent)
chain: MGESLFKGPRDYNPISSSICHLTNESDGHTTSLYGIGFGPFIITNKHLFRRNNGTLVVQSLHGVFKVKDTTTLQQHLVDGRDMIIIRMPKDFPPFPQKLKFREPQREERICLVTTNFQTKSMSSMVSDTSCTFPSGDGIFWKHWIQTKDGQCGSPLVSTRDGFIVGIHSASNFTNTNNYFTSVPKNFMELLTNQEAQQWVSGWRLNADSVLWGGHKVFMVKPEEPFQPVKEATQL

Variants of: B1
Test: raw area under fraction-flipped curve 0-4 h after induction (AUC4h, not background-subtracted), DNA-recorder readout of cleavage of the substrate (dimensionless); higher = more cleavage of the substrate by the protease variant
Details: temperature: 34 °C; time window: 0-4 h after rhamnose induction
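Further: Bxb1 expression induced with 0.2% (w/v) L-rhamnose at OD600 near 0.5, cultures sampled hourly, flipped fraction per protease–substrate barcode pair counted by paired-end Illumina sequencing.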

Variant	area with substrate ENAYFQS	area with substrate ENCYFQS	area with substrate ENDYFQS	area with substrate ENEYFQS	area with substrate ENFYFQS	area with substrate ENGYFQS	area with substrate ENHYFQS	area with substrate ENIYFQS	area with substrate ENKYFQS	area with substrate ENNYFQS	area with substrate ENPYFQS	area with substrate ENQYFQS	area with substrate ENRYFQS	area with substrate ENSYFQS	area with substrate ENVYFQS	area with substrate ENWYFQS	area with substrate ENYYFQS	area with substrate ENTYFQS	area with substrate ENMYFQS
F226W	0.0582	0.0693	0.063	0.0677	0.0568	0.0589	0.0459	0.117	0.0497	0.0627	0.0527	0.0632	0.057	0.0618	0.0645	0.0689	0.0669		
T129Q		0.0575	0.0738	0.0648	0.0555	0.0659			0.0754	0.0645	0.0673	0.0467		0.0448				0.0637	
I145D			0.0564	0.0516		0.0596	0.0608					0.056		0.0549	0.0616		0.0468	0.0617	0.045
E231T	0.048	0.0725	0.071	0.0536	0.0504	0.0583		0.094		0.059			0.0589		0.0559		0.0409		0.0792
Q118T		0.071	0.0345	0.067					0.0427			0.0569	0.0703	0.0685	0.103	0.0596		0.0436	
I84W		0.0592	0.0549	0.0641	0.0571	0.0561	0.0515		0.0619	0.0538	0.0184	0.0624	0.0572	0.048	0.0494	0.0579		0.0417	0.0545
H47F		0.0589	0.0573	0.0484		0.0524	0.0375		0.0626	0.0661	0.0651	0.0614	0.0667	0.0622	0.0552	0.041	0.0508	0.0621	
M219E		0.0699	0.0629	0.0708		0.0898	0.0621			0.0651	0.0426	0.0493	0.0534	0.0615				0.0605	0.0711
T233H	0.0493	0.0742	0.0497						0.0658	0.0632			0.0605	0.0593	0.0707	0.0287		0.0657	0.114
T233G		0.0625	0.0445		0.0497	0.0675	0.056		0.0635	0.0492	0.0565	0.0659		0.057	0.0684	0.0557	0.0516	0.079	0.0676
F49V		0.0702	0.0585	0.0564		0.0717		0.0504	0.0684	0.0631		0.0623		0.0579				0.0642	0.0622
F6H		0.0744					0.0761	0.101			0.0765	0.0651						0.071	0.0908
S127P			0.0723	0.0633		0.0602	0.0504		0.0595	0.0576	0.0603	0.047	0.0583	0.05	0.0811			0.0661	0.0682
G28C		0.0682	0.0517			0.0569		0.106		0.0639		0.0679	0.0383	0.0608		0.0589			
E103A		0.0701	0.0725	0.0627	0.0574	0.056	0.0733		0.0583			0.0616	0.0574	0.0599	0.084		0.0621		0.0901
F133N		0.0635	0.0734	0.0702	0.0619	0.0599	0.0647	0.122				0.0566	0.0721	0.0693			0.0635	0.0664	
H29L		0.0693	0.0599	0.0914			0.0598	0.145			0.051	0.0432	0.0635	0.0557	0.0709	0.0021	0.0603	0.0606	0.0814
K230V	0.0593	0.0599	0.0663	0.0595	0.0617	0.0548	0.0677		0.0441	0.0684	0.0717	0.0616		0.0661	0.0918		0.0562	0.0609	
K230E		0.0608	0.0645	0.0683	0.0601	0.0591	0.0456	0.116		0.0436		0.0581	0.0608	0.0675	0.074	0.0835	0.0686	0.0747	
K230M		0.0856	0.0797	0.0572	0.0483	0.0624	0.0538	0.0891	0.0573	0.0507	0.0583	0.0587	0.0583	0.0466	0.0686		0.056	0.0838	
C20F		0.0623	0.0617	0.0484	0.0441	0.0671	0.0445		0.0536		0.0425	0.0448	0.0536	0.0422	0.0554	0.0196	0.053	0.0576	0.0462
W199H		0.068	0.0683	0.0524		0.0612	0.0567	0.0685				0.0709	0.057	0.0672				0.0687	
V220I		0.0646	0.0583	0.0695	0.0613	0.0619	0.0698	0.127	0.0527	0.0507	0.0902		0.0418	0.0719	0.0806			0.0604	0.076
V78F			0.0591	0.0646	0.0645	0.0643			0.0593	0.0512			0.0542	0.061			0.0617	0.0502	
T44K		0.0437	0.0283	0.0383	0.0393	0.0324			0.0407	0.053	0.0509	0.0535	0.0225	0.0512				0.0438	0.0492
V126F			0.0637	0.0755	0.0604		0.0606	0.104		0.0549		0.0616	0.0559	0.0535	0.101	0.0347		0.0571	0.0742
R10G		0.0634	0.0597	0.0659	0.0433	0.0618		0.0622		0.0861	0.0557	0.0575	0.0629	0.0651	0.0751	0.0832	0.0492	0.0542	0.0589
